Data from the supplement of paper PMC12015411.

System: Escherichia coli BW25113
Experiment: growth relative to no-drug wells (fraction of no-drug control); higher = more growth, less inhibition
Protocol: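 8 x 8 checkerboard in cation-adjusted Mueller-Hinton broth at 37 °C; OD600 at the end of exponential growth as a fraction of no-drug wells, two biological replicates.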

CN(C)c1ccc(O)c2c1C[C@H]1C[C@H]3[C@H](N(C)C)C(O)=C(C(N)=O)C(=O)[C@@]3(O)C(O)=C1C2=O [Minocycline] + Oc1ccc([N+](=O)[O-])c2cccnc12 [nitroxoline]
growth
Conditions	nitroxoline concentration 0.136 µg/ml	nitroxoline concentration 0.255 µg/ml	nitroxoline concentration 0.374 µg/ml	nitroxoline concentration 0.493 µg/ml	nitroxoline concentration 0.612 µg/ml	nitroxoline concentration 0.731 µg/ml	nitroxoline concentration 0.85 µg/ml
0.0125 µg/ml	1	1	0.799	0.53	0.603	0.505	0.332
0.0215 µg/ml	1	1	0.849	0.744	0.591	0.4721	0.341
0.025 µg/ml	1	1	1	0.732	0.633	0.515	0.357
0.043 µg/ml	1	1	1.002	0.771	0.642	0.524	0.375
0.05 µg/ml	1	1	1.01	0.746	0.663	0.55	0.348
0.086 µg/ml	1	1	0.927	0.797	0.587	0.4814	0.378
0.1 µg/ml	1	1	0.837	0.624	0.512	0.471	0.397

CC[C@H]1OC(=O)[C@H](C)[C@@H](O[C@H]2C[C@@](C)(OC)[C@@H](O)[C@H](C)O2)[C@H](C)[C@@H](O[C@@H]2O[C@H](C)C[C@H](N(C)C)[C@H]2O)[C@](C)(OC)C[C@@H](C)C(=O)[C@H](C)[C@@H](O)[C@]1(C)O [Clarithromycin] + Oc1ccc([N+](=O)[O-])c2cccnc12 [nitroxoline]
growth
Conditions	nitroxoline concentration 0.136 µg/ml	nitroxoline concentration 0.255 µg/ml	nitroxoline concentration 0.374 µg/ml	nitroxoline concentration 0.493 µg/ml	nitroxoline concentration 0.612 µg/ml	nitroxoline concentration 0.731 µg/ml	nitroxoline concentration 0.85 µg/ml
0.958 µg/ml	0.759	0.708	0.62	0.539	0.405	0.298	0.252
1.7983 µg/ml	0.742	0.672	0.583	0.369	0.366	0.292	0.265
2.6387 µg/ml	0.692	0.625	0.501	0.559	0.424	0.3	0.254
3.479 µg/ml	0.698	0.588	0.484	0.384	0.296	0.273	0.245
4.3193 µg/ml	0.736	0.661	0.459	0.351	0.277	0.284	0.243
5.1597 µg/ml	0.732	0.602	0.471	0.326	0.216	0.219	0.227
6 µg/ml	0.782	0.515	0.428	0.315	0.255	0.234	0.255

CC1(C)S[C@@H]2[C@H](/N=C/N3CCCCCC3)C(=O)N2[C@H]1C(=O)O [Mecillinam]
nitroxoline concentration 0 µg/ml
Conditions	growth
0.0008 µg/ml	0.97
0.0013 µg/ml	0.937
0.0015 µg/ml	0.948
0.0025 µg/ml	0.911
0.003 µg/ml	0.929
0.005 µg/ml	0.814
0.006 µg/ml	0.77

C[C@@H](O)[C@H]1C(=O)N2C(C(=O)O)=C(S[C@@H]3CN[C@H](C(=O)N(C)C)C3)[C@H](C)[C@H]12 [Meropenem]
nitroxoline concentration 0 µg/ml
Conditions	growth
0.0562 µg/ml	0.891
0.0968 µg/ml	0.777
0.1125 µg/ml	0.811
0.1935 µg/ml	0.4659
0.225 µg/ml	0.219
0.387 µg/ml	0.0341
0.45 µg/ml	0.0369

NCC[C@H](O)C(=O)N[C@@H]1C[C@H](N)[C@@H](O[C@H]2O[C@H](CN)[C@@H](O)[C@H](O)[C@H]2O)[C@H](O)[C@H]1O[C@H]1O[C@H](CO)[C@@H](O)[C@H](N)[C@H]1O [Amikacin]
nitroxoline concentration 0 µg/ml
Conditions	growth
0.025 µg/ml	0.934
0.043 µg/ml	0.975
0.05 µg/ml	0.9609
0.086 µg/ml	0.9419
0.1 µg/ml	0.846
0.172 µg/ml	0.775
0.2 µg/ml	0.82

C[C@H]1c2cccc(O)c2C(=O)C2=C(O)[C@]3(O)C(=O)C(C(N)=O)=C(O)[C@@H](N(C)C)[C@@H]3[C@@H](O)[C@@H]21 [Doxycycline]
nitroxoline concentration 0 µg/ml
Conditions	growth
0.065 µg/ml	0.983
0.1125 µg/ml	0.955
0.13 µg/ml	0.856
0.225 µg/ml	0.67
0.26 µg/ml	0
0.45 µg/ml	0.0858
0.52 µg/ml	0.0384

CCC(C)CCCC(=O)N[C@@H](CCN)C(=O)N[C@H](C(=O)N[C@@H](CCN)C(=O)N[C@H]1CCNC(=O)[C@H]([C@@H](C)O)NC(=O)[C@H](CCN)NC(=O)[C@H](CCN)NC(=O)[C@H](CC(C)C)NC(=O)[C@@H](CC(C)C)NC(=O)[C@H](CCN)NC1=O)[C@@H](C)O (stereo not given in full) [Colistin]
nitroxoline concentration 0 µg/ml
Conditions	growth
0.0798 µg/ml	1
0.1499 µg/ml	0.95
0.2199 µg/ml	0.0121
0.2899 µg/ml	0.01768
0.3599 µg/ml	0.00952
0.43 µg/ml	0.00603
0.5 µg/ml	0.00119

CO[C@@H]1[C@@H](OC(N)=O)[C@@H](O)[C@H](Oc2ccc3c(O)c(NC(=O)c4ccc(O)c(CC=C(C)C)c4)c(=O)oc3c2C)OC1(C)C [Novobiocin]
nitroxoline concentration 0 µg/ml
Conditions	growth
3.9916 µg/ml	1
7.493 µg/ml	1
10.9944 µg/ml	1
14.4958 µg/ml	0.9931
17.9972 µg/ml	0.9947
21.4986 µg/ml	0.91
25 µg/ml	0.78

Oc1c(I)cc(Cl)c2cccnc12 [Clioquinol]
nitroxoline concentration 0 µg/ml
Conditions	growth
0.0938 µg/ml	0.965
0.1625 µg/ml	1
0.1875 µg/ml	1
0.325 µg/ml	0.922
0.375 µg/ml	0.942
0.65 µg/ml	0.9375
0.75 µg/ml	0.9674

CC(=O)Nc1c2sscc-2n(C)c1=O [Thiolutin] + Oc1ccc([N+](=O)[O-])c2cccnc12 [nitroxoline]
growth
Conditions	nitroxoline concentration 0.136 µg/ml	nitroxoline concentration 0.255 µg/ml	nitroxoline concentration 0.374 µg/ml	nitroxoline concentration 0.493 µg/ml	nitroxoline concentration 0.612 µg/ml	nitroxoline concentration 0.731 µg/ml	nitroxoline concentration 0.85 µg/ml
0.0088 µg/ml	1	1	0.819	0.498	0.4921	0.373	0.303
0.015 µg/ml	1	1	0.845	0.607	0.53	0.462	0.2615
0.0175 µg/ml	1	1	0.944	0.648	0.513	0.401	0.285
0.03 µg/ml	1	1	0.932	0.722	0.548	0.429	0.286
0.035 µg/ml	1	1	0.991	0.769	0.58	0.46	0.26
0.06 µg/ml	0.964	1	0.9	0.731	0.503	0.403	0.295
0.07 µg/ml	0.981	1	0.808	0.574	0.471	0.387	0.324

NC[C@H]1O[C@H](O[C@H]2[C@H](O)[C@@H](O[C@H]3O[C@H](CO)[C@@H](O)[C@H](N)[C@H]3O)[C@H](N)C[C@@H]2N)[C@H](N)C[C@@H]1O [Tobramycin] + Oc1ccc([N+](=O)[O-])c2cccnc12 [nitroxoline]
growth
Conditions	nitroxoline concentration 0.136 µg/ml	nitroxoline concentration 0.255 µg/ml	nitroxoline concentration 0.374 µg/ml	nitroxoline concentration 0.493 µg/ml	nitroxoline concentration 0.612 µg/ml	nitroxoline concentration 0.731 µg/ml	nitroxoline concentration 0.85 µg/ml
0.0187 µg/ml	1	0.975	0.783	0.504	0.511	0.347	0.245
0.0325 µg/ml	1	1	0.786	0.552	0.475	0.412	0.251
0.0375 µg/ml	1	1	0.819	0.573	0.519	0.399	0.286
0.065 µg/ml	1	1	0.849	0.701	0.5	0.395	0.257
0.075 µg/ml	1	1	0.893	0.647	0.487	0.394	0.226
0.13 µg/ml	0.799	0.877	0.852	0.762	0.519	0.429	0.244
0.15 µg/ml	0.671	0.724	0.625	0.555	0.423	0.341	0.258

Bacterial growth in Mueller-Hinton broth at 37 °C with the drug at the dose given, alone or with nitroxoline. Checkerboards on E. coli BW25113: OD600 at the end of exponential growth as a fraction of no-drug wells. Colistin series: OD595 at 10.75 h as a fraction of the colistin-free well. 1 = full growth, lower = more inhibition. No active / inactive call per well. Checkerboard doses stop near each drug's IC75, and their values pile up at 1, as if capped there. Colistin and gentamicin are mixtures; one drawing stands for each.
